In PubChem BioAssay AID1963576 (National Center for Advancing Translational Sciences (NCATS), 2024):
Among all 46,000 compounds or so, about 60 (0.1%) were called active. Roughly 3% stayed inconclusive and do not appear here. Calls follow the shape of the dose curve; as a rule, active = well fitted inhibition curve with a large enough effect; inconclusive = small, poorly fitted or top-dose-only effect; inactive = no such curve, though single readings can be large or run the other way. The list shows a part of the results.

Assay: Primary qHTS assay for Inhibitors of ovarian cancer metastasis using an organotypic tumor microenvironment (TME) model. Also: nearly all actives have a fitted effect of over 65% in size.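 As to activity change, negative = inhibition: plate controls were DMSO wells for no effect and tomatine positive control wells for full effect.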
Settings: SKOV3ip1-GFP adhesion/invasion on 3D omental model, fluorescence; series mostly up to 45.8 µM; activity change, negative = inhibition: at the top concentration
Summary of the method: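 qHTS, 4-pt dose (0.36-46 umol/L); SKOV3ip1-GFP, 1,200 cells/well, no FBS; primary omental fibroblast/mesothelial co-culture 48 h pre-grown; 2 h RT + 16 h 37 C; PBS wash, 4% PFA; GFP count 488/509 nm.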

Activity change, negative = inhibition, inactive:
CC(=O)N1N=C(c2ccc(C)cc2)CC1c1cn(-c2ccccc2)nc1-c1cccs1 (stereo unspecified) -2.3%, COc1ccc(-c2n[nH]c3c2cnc2cc(OC)c(OC)cc23)cc1 1.32%, CCc1ccc(C(=O)c2cn(CC(=O)Nc3ccc4c(c3)OCO4)c3ccc(F)cc3c2=O)cc1 -12.3%, Cn1c(=O)oc2cc(S(=O)(=O)NC(Cc3ccccc3)C(=O)NCc3ccccc3Cl)ccc21 (stereo unspecified) -3.45%, COc1cc(OC)c(NC(=O)c2ccc3c(c2)N(Cc2ccc(C)cc2)CCS3)cc1Cl -1.23%, Cc1ccc(CSC2=Nc3ccccc3C3=NC(CC(=O)NCc4ccc5c(c4)OCO5)C(=O)N23)cc1 (stereo unspecified) 1.44%, CCCS(=O)(=O)Nc1cc(-c2cn3ccc(C)cc3n2)ccc1C 0.976%, Cc1ccc(-n2ncc(C(=O)NC3CCN(Cc4ccccc4)CC3)c2C2CCN(C(=O)OC(C)(C)C)CC2)cc1C -8.59%, COc1ccc(CCCc2nnc(SCC(=O)Nc3ccc(C)cc3)o2)cc1C 16.2%, COc1ccccc1N1CCN(S(=O)(=O)c2c(C)sc3ncn(CC(=O)Nc4ccc(C)cc4Br)c(=O)c23)CC1 1.91%, Cc1ccc(S(=O)(=O)c2nnn3c2nc(N2CCOCC2)c2sccc23)cc1C 3.63%, COc1ccc(-n2c(=O)c3ccccc3n(Cc3ccccc3Cl)c2=O)cc1 -6.71%, CCOc1ccccc1NC(=O)Cn1c(=O)n(Cc2cccs2)c(=O)c2cccnc21 0.842%, CCC(C(=O)NCCc1cc(OC)ccc1OC)n1nc(C)c2c(C)n(-c3ccccc3)nc2c1=O (stereo unspecified) 2.06%, Fc1ccc(-c2nn(-c3ccc(Cl)cc3)c3c2cnc2ccc(F)cc23)cc1 1.64%, COc1ccc(OC)c(NC(=O)Cn2c(=O)cc(C)c3c(C)nn(-c4cccc(Cl)c4C)c32)c1 -7.82%, CN1CC(=O)Nc2cc(C(=O)O)ccc21 6.09%, Cc1ccc(CNC(=O)C2CCCN(c3ncnc4onc(-c5ccc(F)cc5)c34)C2)cc1 (stereo unspecified) 6.74%, CCOc1ccc(NC(=O)CN2CCN(CC(=O)Nc3ccc(F)cc3F)CC2)cc1 -11.9%, CCCN1Cc2cccc(C(=O)Nc3ccccc3C(=O)OC)c2C1=O -12.8%, Cc1ccccc1-c1noc(-c2nnn(-c3ccccc3C)c2N)n1 0.851%, CCOc1ccccc1C(=O)Nc1ccc(S(=O)(=O)N(Cc2ccccc2)c2ccccc2)cc1 0.468%, CCOC(=O)c1ccccc1NC(=O)Cn1ccn2nc(-c3ccc(OCC)cc3)cc2c1=O 1.11%, COC(=O)c1c(NC(=O)COc2cccc(C(F)(F)F)c2)sc2c1CCCC2 3.81%, COc1ccc(Cc2nc3c4cnn(-c5cccc(F)c5)c4ncn3n2)cc1 9.72%, C=CC[C@@H]1C=C(C)C[C@H](C)C[C@H](OC)[C@H]2O[C@@](O)(C(=O)C(=O)N3CCCC[C@H]3C(=O)O[C@H](C(C)=C[C@@H]3CC[C@H](O)[C@H](OC)C3)[C@@H](C)[C@@H](O)CC1=O)[C@@H](C)C[C@@H]2OC 0.301%, Cc1cccc(C(=O)N(Cc2ccccc2F)C2CCS(=O)(=O)C2)c1 (stereo unspecified) 6.98%, COc1ccc(N2CCN(C(=O)c3cnn(-c4ccc(OC)cc4)c3C3CCN(C(=O)OC(C)(C)C)CC3)CC2)cc1 12.4%, Cc1c(Cl)cccc1-c1ccc(/C=C(\C#N)c2nc3ccccc3[nH]2)o1 -21.6%, C=C[C@@H]1CN2CCC1C[C@H]2[C@H](O)c1ccnc2ccc(OC)cc12 (stereo partly specified) -11.9%, CCCCOc1cccc(C(=O)N2CCN(CCc3ccncc3)CC2)c1 -5.36%, CCCNC(=O)N1CCCN(S(=O)(=O)c2ccc3c(ccn3CC)c2)CC1 6.99%, CCN(CC)C(=O)CSc1nc2cc3c(cc2c(=O)n1CCCC(=O)NCc1ccc(OC)cc1)OCO3 -3.73%, CCOc1ccc(Cc2cc([C@@H]3O[C@H](CO)[C@@H](O)[C@H](O)[C@@H]3O)ccc2Cl)cc1 -2.21%, CCc1ccc(CN(Cc2cn[nH]c2-c2ccc(OC)cc2)C(=O)Nc2ccc(Br)cc2)cc1 4.45%, CN(C)c1ccc(C(CNS(=O)(=O)c2ccc(F)cc2F)N2CCOCC2)cc1 (stereo unspecified) -7.58%, CCc1nn(CC(=O)NCCOC)c(=O)c2cc3cc(F)ccc3n12 -15.4%, CCOC(=O)c1c(NC(=O)c2ccc(S(=O)(=O)N(CC)CC)cc2)sc2c1CCCCC2 -16%, CCn1c(SCC(=O)Nc2c(C)cccc2C)nnc1-c1nonc1NC(C)=O 3.73%, COc1cc(N2CCC(C(N)=O)CC2)ccc1Nc1nc(N)c(Cl)c(Nc2ccccc2S(=O)(=O)C(C)C)n1 9.03%, CN(C)c1nc(N(C)C)nc(N(C)C)n1 -2.09%, COc1cc(NS(=O)(=O)c2cc(Br)cc3c2N(C(=O)C2CC2)CC3)cc(OC)c1 -0.499%, Cc1cccc(NC(=O)Cn2c(=O)c3cccn3c3ccccc32)c1C -0.0987%, COc1ccc(-c2csc(-c3c(N)c(C(=O)c4ccccc4)n4ccccc34)n2)cc1OC -14.5%, CC1CCN(C(=O)Cn2c(SCC(=O)Nc3ccc(F)cc3)nc3ccccc32)CC1 8.5%, Cc1ccc(CN2CCN(C3CCN(S(=O)(=O)N(C)C)CC3)C(=O)C2=O)cc1 1.34%, CCN(CCCNC(=O)c1nn(-c2ccc(OC)c(Cl)c2)c(=O)c2c1c1ccccc1n2C)c1ccccc1 24.1%, Cc1ccc(NS(=O)(=O)c2ccc3c(c2)C(C(C)C)C(=O)N3)cc1C (stereo unspecified) 15%, Cc1nc2c(C(=O)NCCc3ccc(Cl)cc3)cnn2c(C)c1Cc1ccc(F)cc1 -10.8%, CC(C)c1ccc(OCC(=O)NCC(c2ccc(Cl)cc2)N2CCOCC2)cc1 (stereo unspecified) -11.9%, CCOC(=O)C1=C(CN2CCN(C)CC2)NC(=O)NC1c1ccc(F)cc1 (stereo unspecified) 3.55%, CCN(Cc1ccccc1)C(=O)Cn1c(=O)n(-c2cccc(C)c2)c(=O)c2c1c1cc(OC)ccc1n2C -1.88%, COc1nccc(-c2c(-c3ccc(F)cc3)ncn2C2CCNCC2)n1 18.6%, CCCSc1nc2sc3c(c2c(=O)n1-c1ccc(C)c(Cl)c1)CCN(C(C)=O)C3 5.22%, CNc1nc2c(c(=O)n(C)c(=O)n2C)n1CC(O)COc1ccc(OC)cc1 (stereo unspecified) -6.63%, COc1ccc(NS(=O)(=O)c2ccc(-n3cccn3)cc2)cc1OC 6.27%, Cc1cccc(-c2nnc(SCC(=O)N3CCCCC3)o2)c1 2.33%, CCn1c(=O)n(CC)c2cc(N3CCCC3)c(NC(=O)Nc3cc(C)cc(C)c3)cc21 -13.6%, COc1ccccc1N1CCN(C(=O)c2ccc(Nc3nc4ccccc4n4nnnc34)cc2)CC1 -26.2%, COc1ccc(S(=O)(=O)c2c(O)c(C)cc(NC(=O)c3ccccc3)c2C(C)C)cc1 -27.2%, Cc1ccc(CCNC(=O)CSCc2nc(-c3ccc(C)cc3)oc2C)cc1 -6.84%, Cc1ccc(CNC(=O)c2nn(C)c3c2CSc2ccc(C)cc2-3)cc1 11.8%, Cc1c(C(=O)Nc2cccc(-c3nc4ccccc4s3)c2)oc2ccc(F)cc12 -8.96%, CCn1c(CN2CCCCC2)nc2cc(NC(=O)c3cccc([N+](=O)[O-])c3)ccc21 0.122%, COc1cc(-c2nc(C(N)=O)c3c(n2)n(-c2cccc(C)c2)c(=O)n3C)cc(OC)c1OC 27.2%, Cc1ccc(NC(=O)Cn2c(=O)n(Cc3nc(C)no3)c(=O)c3cc4c(cc32)OCO4)cc1 8.75%

outcome, inactive:
CCOc1ccccc1CNC(=O)C1CCN(c2nc3ccccc3nc2C(F)(F)F)CC1, CCN(CC)S(=O)(=O)c1ccc2c(c1)c(=O)c(C(=O)N1CCN(c3cccc(Cl)c3)CC1)cn2C, Cc1cccc(C2N=C(N)Nc3nc4ccccc4n32)c1 (stereo unspecified), O=C(Nc1ccc2nc(SCC(=O)N3CCCc4ccccc43)sc2c1)c1ccc(Cl)cc1, Cc1ccc(Nc2sc(C(=O)c3ccc(F)cc3)c(N)c2S(=O)(=O)c2ccc(C)cc2)cc1, Cc1ccc(C)c(CN2C(=O)c3ccccc3S(=O)c3ccc(C(=O)N4CCOCC4)cc32)c1 (stereo unspecified), COc1ccc(C(=O)Nc2nc3n(n2)C(c2ccc(Cl)cc2)C=C(c2ccccc2)N3)cc1OC (stereo unspecified), CC(Sc1nc(=O)cc(N)n1CCc1ccccc1)C(=O)Nc1cccc(Cl)c1 (stereo unspecified), O=C(CN1C(=O)CCSc2ccccc21)Nc1ccc(C(F)(F)F)cc1, Cc1ccc(-n2cc(C(=O)OCc3ccc(F)c(F)c3)c3ccccc3c2=O)cc1, COc1cc(C(=O)N2CCN(C(=O)COc3cccc(C)c3)CC2)cc(OC)c1OC, CCN(CC)c1ccc(NS(=O)(=O)c2cc(-c3cc(C)no3)ccc2C)c(C)c1, Cc1ccc(CCNC(=O)CN(c2ccc(C(C)C)cc2)S(=O)(=O)c2c(C)nn(C)c2C)cc1, O=C(Nc1cccc(C(F)(F)F)c1)Nc1ccc2snnc2c1, COc1ccccc1N1CCN(C(=O)CSc2nc3ccccc3nc2Cc2ccc(C)cc2)CC1, CCS(=O)(=O)c1cccc(C(=O)Nc2ccc(-c3nc4ccccc4s3)c(O)c2)c1, CC(C)NC(=O)C1CCN(C(=O)c2cnn(-c3ccccc3)c2-n2cccc2)CC1, Cn1nc(C(=O)NCCc2ccc(Cl)cc2)c2c1-c1ccccc1SC2, CN(C(=O)c1cc2nc(-c3ccc4c(c3)OCO4)cc(C(F)(F)F)n2n1)c1ccc(OC(F)(F)F)cc1, O=C(Nc1ccccc1F)c1oc2ccccc2c1NC(=O)c1c(F)cccc1F, CSc1nnc2n(-c3cccc(C)c3)c(=O)c3c4c(sc3n12)CCCC4, CC(C)c1ccc(NC(=O)Cn2c3ncccc3c(=O)n2-c2ccccc2)cc1, CCOc1ccc(-c2nnc(SCC(=O)Nc3cc(C)ccc3OC)o2)cc1, N#Cc1cccc(NC(=O)C2CCN(c3nc(-c4ccc(Cl)cc4)no3)CC2)c1, COC(=O)c1ccccc1NC(=O)c1ccc(=O)n(Cc2cccc(C)c2)c1
